Measurements reported in the supplement of paper PMC7826260.
This is one part of the list. Cleavage of a single-stranded DNA pool by Rep nickase domains was read by sequencing for 1 h at 37 °C with 3 µM enzyme; only the middle of the 90-letter strands is printed. A value is the log2 ratio of uncut reads to the pool without enzyme; more negative means more cut, near 0 not cut, and no call is made. Counts are relative to all reads; where an enzyme cuts many sequences, the uncut ones exceed 0.

These sequences were tested on T1, Rep nickase domain of Muscovy duck circovirus (assay: uncleaved DNA left, log2 of reads against the no-enzyme library (log2 ratio); higher = less cleavage (more negative = more Rep cleavage of the k-mer); sequences stand for … in CTCGTCCG…ACCGGAGA).
T1 sequence (residues 1-111 of Rep, tag left off): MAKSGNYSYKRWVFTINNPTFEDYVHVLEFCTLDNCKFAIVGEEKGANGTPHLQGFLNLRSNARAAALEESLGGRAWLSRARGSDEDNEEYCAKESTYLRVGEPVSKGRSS
Procedure: (§1)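 A pool of 90-nt single-stranded DNAs with seven random bases just before the constant AC of the nick site (name = the seven bases) was cut by 3 µM recombinant His6-SUMO-tagged Rep nickase domain (300 nM DNA, 50 mM HEPES pH 8.0, 50 mM NaCl, 1 mM MnCl2, 1 h, 37 °C, three replicates). Uncut DNA was amplified and sequenced.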

| Sequence | uncleaved DNA left (log2) |
| --- | --- |
| TCATCTG | -0.0626 |
| ACCGTCG | 0.0978 |
| CCTGAAC | -0.0282 |
| CATGAGA | 0.178 |
| GGTAATT | -0.049 |
| GACTGGT | -0.252 |
| ATACCTA | 0.0387 |
| CACATAA | 0.0778 |
| ACCCGGT | 0.0738 |
| ATCCAAC | -0.0508 |
| GCAAACT | -0.00214 |
| TGGATCC | -0.0104 |
| CGGCAGG | 0.0934 |
| AGGTGAG | 0.116 |
| CGGCAAA | 0.0586 |
| TGGCGAG | -0.0046 |
| GTTGCCG | -0.0268 |
| CCTCCCA | -0.194 |
| TACCTCC | -0.0164 |
| TGTGACG | -0.0621 |

| Sequence | uncleaved DNA left (log2) |
| --- | --- |
| TGGACTC | 0.00436 |
| GATCCCA | -0.0598 |
| GACTATG | -0.0466 |
| ACCCTTG | 0.0859 |
| GGGGTAC | 0.0538 |
| CTCATAT | -0.0345 |
| ATCAATT | 0.0661 |
| ATCGATT | -0.153 |
| TCTCAAG | 0.179 |
| TGCTCAC | -0.112 |
| GGACATT | 0.156 |
| AGGCATT | 0.216 |
| CGCGGTA | -0.0245 |
| AGGCTCG | -0.0362 |
| AGAAAAT | 0.0227 |
| GCAGCTA | -0.0659 |
| GCCATCT | -0.0463 |
| AGAGATC | 0.182 |
| CACACAC | 0.00764 |
| TGTCCAT | 0.0257 |

What follows are sequences tested on T2, Rep nickase domain of banana bunchy top virus in the same assay as above.
T2 sequence (residues 1-94 of Rep, tag left off): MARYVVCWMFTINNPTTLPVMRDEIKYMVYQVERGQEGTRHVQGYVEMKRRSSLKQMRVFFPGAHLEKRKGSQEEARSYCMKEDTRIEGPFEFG
Procedure: as §1

| Sequence | uncleaved DNA left (log2) |
| --- | --- |
| TCATCTG | -0.099 |
| ACCGTCG | 0.0962 |
| CCTGAAC | -0.128 |
| CATGAGA | 0.0522 |
| GGTAATT | -0.123 |
| GACTGGT | -0.107 |
| ATACCTA | 0.041 |
| CACATAA | 0.0132 |
| ACCCGGT | -0.0575 |
| ATCCAAC | 0.0092 |
| GCAAACT | 0.0389 |
| TGGATCC | 0.139 |
| CGGCAGG | 0.196 |
| AGGTGAG | -0.0464 |
| CGGCAAA | 0.0359 |
| TGGCGAG | -0.2 |
| GTTGCCG | -0.149 |
| CCTCCCA | -0.143 |
| TACCTCC | -0.0253 |
| TGTGACG | -0.182 |

| Sequence | uncleaved DNA left (log2) |
| --- | --- |
| TGGACTC | 0.11 |
| GATCCCA | -0.0216 |
| GACTATG | -0.105 |
| ACCCTTG | 0.00703 |
| GGGGTAC | 0.0485 |
| CTCATAT | -0.123 |
| ATCAATT | 0.0487 |
| ATCGATT | -0.0786 |
| TCTCAAG | -0.0289 |
| TGCTCAC | 0.0448 |
| GGACATT | 0.0943 |
| AGGCATT | 0.0136 |
| CGCGGTA | 0.0225 |
| AGGCTCG | -0.063 |
| AGAAAAT | -0.0147 |
| GCAGCTA | 0.00963 |
| GCCATCT | 0.0211 |
| AGAGATC | -0.00338 |
| CACACAC | -0.0189 |
| TGTCCAT | 0.0904 |

Each sequence was assayed on T3, Rep nickase domain of cabbage leaf curl virus in the same assay as above.
T3 sequence (residues 1-116 of Rep, tag left off): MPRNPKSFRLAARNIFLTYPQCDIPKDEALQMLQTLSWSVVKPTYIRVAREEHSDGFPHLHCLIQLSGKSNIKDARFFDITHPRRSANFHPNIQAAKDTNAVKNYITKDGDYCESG
Procedure: as §1

| Sequence | uncleaved DNA left (log2) |
| --- | --- |
| TCATCTG | -0.118 |
| ACCGTCG | -0.416 |
| CCTGAAC | 0.0439 |
| CATGAGA | -0.517 |
| GGTAATT | 0.569 |
| GACTGGT | 0.0327 |
| ATACCTA | -0.0913 |
| CACATAA | -0.173 |
| ACCCGGT | -0.0909 |
| ATCCAAC | -0.174 |
| GCAAACT | -0.0993 |
| TGGATCC | 0.337 |
| CGGCAGG | 0.0763 |
| AGGTGAG | -0.429 |
| CGGCAAA | 0.0555 |
| TGGCGAG | -0.133 |
| GTTGCCG | -0.824 |
| CCTCCCA | -0.0481 |
| TACCTCC | -0.0599 |
| TGTGACG | -0.44 |

| Sequence | uncleaved DNA left (log2) |
| --- | --- |
| TGGACTC | 0.824 |
| GATCCCA | 0.215 |
| GACTATG | -0.218 |
| ACCCTTG | -0.786 |
| GGGGTAC | 0.715 |
| CTCATAT | -0.0768 |
| ATCAATT | -0.131 |
| ATCGATT | -0.118 |
| TCTCAAG | -0.588 |
| TGCTCAC | 0.183 |
| GGACATT | 0.791 |
| AGGCATT | 0.828 |
| CGCGGTA | -0.24 |
| AGGCTCG | -0.475 |
| AGAAAAT | 0.212 |
| GCAGCTA | 0.0539 |
| GCCATCT | -0.112 |
| AGAGATC | 0.253 |
| CACACAC | -0.0794 |
| TGTCCAT | 0.254 |
